Reference: the RNAGym collection of RNA variant scans (doi:10.7554/elife.90254)
The source gives no read counts; variants with many changes may rest on few reads.

B1: LINE1-mini (parent)
chain: GGCAGAGCUCAACACAGCGUGGCAAAGUGGCUGUGGCUAGACUGCC

Variants of: B1
Experiment: self-cleavage, relative activity (ratio to wild type); higher = more cleavage; in vitro, sequencing; the parent is a self-cleaving ribozyme

Row | Variant | self-cleavage
1 | A14U G22A C23G U38A C42G | 0.02
2 | A14U G22A G27A G29A | 0.71
3 | A14U G22U A41G | 0.08
4 | A14U G22U G33C C42A | 0.07
5 | A14U G27A G29U | 0.56
6 | A14U G27A G35U A39G | 0.02
7 | A14U G27A U28A G30U | 0.17
8 | A14U G27C G30A C42A | 0.05
9 | A14U G27C G30U A41U C42G C45U | 0.04
10 | A14U G27C U32G G40U | 0.05
11 | A14U G29C U34G | 0.17
12 | A14U G30C G35U | 0.07
13 | A14U G30U U32G C45U | 0.03
14 | A14U G33C U38C | 0
15 | A14U G35A G36U G44A | 0.04
16 | A14U G35C G40A | 0.15
17 | A14U G35U U38G | 0.04
18 | A14U G36C U43A | 0.09
19 | A14U G40A C46A | 0.04
20 | A14U U20A A25U | 0.03
21 | A14U U20A G22C C37G A41G | 0.07

Row | Variant | self-cleavage
22 | A14U U20G C37U G40A | 0.12
23 | A14U U20G G21U G29U | 0.11
24 | A14U U28A U32G G33A U34A C46A | 0.02
25 | A14U U28C C31A | 0.04
26 | A14U U28C G35U | 0.03
27 | A14U U32A A39U A41U | 0.03
28 | A14U U32G C42A | 0.03
29 | A14U U34C C46U | 0.05
30 | A14U U38A A41C C42A | 0.05
31 | C15A A16C G21U | 0.03
32 | C15A A16C G40C | 0.1
33 | C15A A16G C18A G27A | 0.01
34 | C15A A16G C18U | 0.02
35 | C15A A16G G19A U20A G29C U34G | 0.01
36 | C15A A16G G22C | 0.02
37 | C15A A16U G22U A26C | 0.01
38 | C15A A24C A39C G44C | 0.01
39 | C15A A24C G40A U43G | 0.04
40 | C15A A24G G27U | 0.09
41 | C15A A24U C37U C42A G44C | 0.06
42 | C15A A24U C46G | 0

Row | Variant | self-cleavage
43 | C15A A24U G27A C37G | 0.18
44 | C15A A24U G36C | 0.18
45 | C15A A25C A39C G44A | 0.02
46 | C15A A25C C31G U38A A41U C42G G44U C46G | 0
47 | C15A A25C G33U | 0.2
48 | C15A A25C G40C G44C | 0.01
49 | C15A A25G U32A G44U C46A | 0.02
50 | C15A A25U C42U C46U | 0.05
51 | C15A A25U C46G | 0.08
52 | C15A A25U U28A | 0.08
53 | C15A A26C G27U A39C | 0.11
54 | C15A A26C G29A | 0.11
55 | C15A A26C G35A C45G | 0
56 | C15A A26G G27C U38C | 0.08
57 | C15A A26U C45A | 0.04
58 | C15A A26U G27U G44C | 0.01
59 | C15A A26U G44U | 0.02
60 | C15A A26U U38G U43C | 0.01
61 | C15A A39U U43C | 0.01
62 | C15A C18A A26C | 0.07
63 | C15A C18A C31A | 0

Row | Variant | self-cleavage
64 | C15A C18A G21U A24G | 0.06
65 | C15A C18A G27U G40C | 0.04
66 | C15A C18G C23U | 0.05
67 | C15A C18G C42A | 0.02
68 | C15A C18G G21U | 0.29
69 | C15A C18U G21C | 0.04
70 | C15A C18U G21C G40U | 0.03
71 | C15A C23A A24U G30U | 0.05
72 | C15A C23A G33A U43A C46A | 0.04
73 | C15A C23G G33A C45A | 0.12
74 | C15A C23G U32A A39G C46A | 0.01
75 | C15A C23U A24G | 0.16
76 | C15A C31A G35A | 0.03
77 | C15A C31A G40C | 0.01
78 | C15A C31U G40U | 0.04
79 | C15A C37G A41U | 0.05
80 | C15A C37G C45A C46U | 0.01
81 | C15A C37U C42G | 0.03
82 | C15A C42U C46A | 0.02
83 | C15A G17A C37U | 0.01
